# This is one part of the list. At the low end of the ranking, values are background and their order means little. Measured with an extract: partners may take part in the binding.
# Biological target: T1, HNF4alpha2 (COS-7 nuclear extract) (UniProt P41235)
# T1 sequence: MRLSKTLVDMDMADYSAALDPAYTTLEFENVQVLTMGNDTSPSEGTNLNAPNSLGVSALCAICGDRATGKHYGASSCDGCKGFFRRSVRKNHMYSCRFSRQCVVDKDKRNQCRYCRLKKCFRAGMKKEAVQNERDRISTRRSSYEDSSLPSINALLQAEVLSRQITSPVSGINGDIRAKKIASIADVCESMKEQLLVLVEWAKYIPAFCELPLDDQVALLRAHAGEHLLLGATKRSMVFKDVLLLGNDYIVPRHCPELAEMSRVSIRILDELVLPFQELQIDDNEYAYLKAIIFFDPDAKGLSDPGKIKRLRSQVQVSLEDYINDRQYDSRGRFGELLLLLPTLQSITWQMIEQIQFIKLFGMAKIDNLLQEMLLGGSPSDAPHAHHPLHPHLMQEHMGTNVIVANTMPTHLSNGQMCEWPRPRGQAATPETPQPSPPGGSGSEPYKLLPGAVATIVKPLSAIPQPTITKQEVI
# Experiment: protein-binding microarray
# Conditions: COS-7 nuclear extract on double-stranded Agilent 4x180k PBM; binding buffer, salt, pH and temperature not given; high values mean tight binding; double strand, one strand shown; sequences stand for … in …GCCTAGGGAGATTAGAGTATCGGTCGA
row,Sequence,binding signal (log2 normalized intensity)
1,GTCCGGCAGAGCTATGGAATTTTGGCCTTT,3.22
2,GGCCAGATAAAGCAGGTTGTACCTTGACCC,8.92
3,TTCCACTGACTTGCAACCTTTGCCCTGTTG,6.31
4,TCCTCAGGGAGGAAGGCAACCACAGCCTCT,-1.16
5,GCCCTTTGCCCTTTGCCCAACCCTCTCCCA,5.55
6,GACGAGCTGTCACTGGCTGCTGCTCAGGAG,-1.11
7,TGGAAGAGCCTGCAAGGGAGACCAGGAAAG,-1.14
8,TCCCCTCCCTCAGCTCTGCCCAGACCTTAT,3.8
9,TTGATCAGGGACCTTTGTTCCTTTACACAT,3.32
10,CTTTGGAACCTGCCCTCTGTCCCATGGTGT,2.48
11,CCAAGGTTCTCCAGGGACCCCCCGACCCCA,5.52
12,GTGCTCCCTCCCCCTGCATGAACCTTTGCT,3.19
13,AGAAAAAGGAGCAGATGGCTAGTGACTCAG,-1.03
14,TGTGCAAAATACCTGGAAGTATTTATTGAG,0.799
15,GTTATCTCATTACTCTGCATAAGGACCTCC,0.652
16,TTGTTGTTATCCATTTAAAAAGTATTTATT,0.906
17,CCCACCTCTCAGACAGAGCTGGTCTGTGCT,-1.13
18,TTGGAATGTTCCAAGACCTTTGAAGCTTGC,2.05
19,CCAGTTTTCCCAAAGGAGCTTTATTGGTTC,1.5
20,GTTTTGTGAGTTTTCTTCTGAAATTGCTCA,0.613
21,GGCCATGTGCAGAGGAGGGGGCAGGAGCCC,-1.1
22,TCGCAGTCATAAATACTCATTATGTTGCTG,-0.834
23,GGAACACGAGGTGAGAGGCGGAACAAGGCT,-1.07
24,GAACCCACATCACTGGCCAAAGGTAATAGG,-0.776

row,Sequence,binding signal (log2 normalized intensity)
1,CAGTCTATCAGACCAGCATTCTTTCTGCTG,-1.08
2,ACCAGGCAGTTTCCCGGTTCCTGATCTCAG,-1.11
3,CAAACCTTTGACCTTTCCATAGTTCCGAGT,3.65
4,GGCATCTACTTTTAAAACGCTCAAATAAGC,-0.972
5,GGGCCTACCTGCCTGAGCTATCTGTTTGAG,-0.641
6,AGTATCATGTTGGCATTCCAGGATGAAGGA,0.674
7,CTGCCTTATCGTATTCTTATCAATACCTGT,1.29
8,AGGCAGCCACCCACAAGCCAAGGAGAGAGG,-1.07
9,CACTGTTTATTTTGTGTGATACTCAAGGCA,1.83
10,TTAAGGCCAGATGGCCACCCTTCAGCAAAT,-1.02
11,GCTGTCCAAGGTGCTAGCTCCGACTCAGTG,-1.09
12,TAATGGCAGAATCAAAGGTCAAAATATCTG,3.33
13,GTGAGGAATGCAACCACACCAACATGGACT,1.61
14,GACACCTTCAGGGCTGAGCCCACAGTCCAG,-1.22
15,TAGGGCCCATGCCCTTAGCCACTGCATGAT,-1.03
16,GCTGTGTGGCATGGTGTTTTGCCTTACACA,0.593
17,TGAACTGACTGGGGTTAACGTCCAAAGGTA,2.67
18,CTTTGAGCATCGCTGGACTCTGCTCCTAAG,3.81
19,ATACTGCCTTTCTAGAACCAGAATTCCAGA,-1.08
20,ATTCTTGTCAATGACCCTAATGGGGTACTT,1.65
21,GGCTGTGAAATATTTGAGTTCTTCAAGTCA,1.24
22,TCAGACAAGTTGCAGGGATGGACTTTAATC,6.09
23,CCTTTGAGATAGCTATGATTATCCTTATCT,0.316
24,GAGTGTATAGTGGCACTGTTATGACCCATT,2.32

row,Sequence,binding signal (log2 normalized intensity)
1,AGGAAACTCTTTCCTAACAGTGAATGTTTC,0.887
2,ATGGGCCCCAGTAAAAACAGTGGGCCTTAA,-1.11
3,AGATAAAAAGGCTAGAGCGCGCTGGAATCT,-1.11
4,ACTTGAAGACATTCCAAGAAGAGCCAATAG,-1.17
5,GCTGCTCAGTTTAAGTCAAAATATAAGGTC,1.12
6,GAGGACTTTGATCAGCAATGGAGAGTGATC,2.33
7,CCTAAACAGCAACTGTAGTGCATAGTGGGT,1.19
8,ACTGTCTAGCTGTGTAACCCTGGACAAGTT,-0.0459
9,CCAGTCTAGGTCTGGAAGGAAGGAGGGAGG,-1.06
10,ACACTCAAGGCAAGAGAGTCATAAAGGGCA,-0.815
11,GTGCAATAACACCTATGTGCAAAATACCTG,-1.07
12,ATATCCTTTAGCTCCTGGGCCCAGATATAC,0.196
13,TTAGAGCTGGGGCACAATGCTGCAATTCTC,-1.17
14,TGCACTTTGCCCTCTCTTCAGCACCTTTTA,4.51
15,GGTCAATATTTTCTTTGTGCTATTTTTGGC,1.61
16,GGCCCTCACGTGGCCCTGGCATTTGGCTCA,-1.22
17,TTAATGTGCTTGTCTGACTGCTGCCAAAGG,-0.631
18,TTCCCTCCTCTTCCCTACCCCCTGGGAGTA,4.05
19,TCTATCTGTATTCTGAAGCCCTACAGCCCA,-0.864
20,AGCAGCATTGGACCCTCCCAGCCAAACCCC,4.34
21,TGAGAGCAGAGGCTGGGGCCCTCTTCCAGC,-1.02
22,CAGTGTCAGGACCTTGCTCCTGTTCCTTTG,1.49
23,ACTGGCCCAGCGGATTAATATCCAGAGGCT,-1.13
24,CATTGATAATTCAGTTTCATTGCACTTTGC,4.01

row,Sequence,binding signal (log2 normalized intensity)
1,CTGGAACCATCAGGATTCCAGAGGAAGCAG,-1.08
2,TATTGAACAAAGATTGCTTGCCAGTTCCCT,-1.03
3,ACTTAGGATCAGTAGCATTATCTCCTTGCT,-1.02
4,TTTGTGATTACATTGAGTCCACTGAGATCA,1.31
5,AAATGGAACAGTAAGTGTTAATGGCACTTC,0.382
6,TTCCACCTTTGCCCTCCAAACTGAGAGATT,2.62
7,GAAACATGCGATACTTGACCTGCAATGAAA,-0.0692
8,TGCTTTGGGTGGATTTGGAGATCAGAGTCC,3.16
9,AATGATAAGATATATGACTCTAGATTGTTT,0.662
10,AGGCTTTAGATAAGGTATGTGGGAGCGGGG,-0.539
11,GAGAGCAAGGGGGAAGCTGCTAATTGCTTG,-1.1
12,CCTATGTCTACGTCTTGTCTCTTTTGTCCA,2.04
13,GTTGCACTCACTAGCATTAGGACCTGTTTG,0.396
14,GCTGTTACTCTAGTACTAGGCAGCATAGGG,-1.07
15,CCCTACTGTACCCTATGCACCCCACAGTGC,2.11
16,TGAGACATGAATCCATCCCACCTCACTTAT,1.78
17,TATGTTAGACCAGCCAATTCTACTGGAAGT,0.295
18,TCTTCAGGAGGCACTGATAAGCGTATTTCA,-0.599
19,TGGAATGCAAGACCTCAGCCCTCAGGGGCC,-1.15
20,ACCCACCCACCTATGTCCTTATCCTCATTG,0.843
21,CATAGATCCCACCATTCCCAGTTGTCTGAT,1.06

# Source: publication PMC10726135
